# Assay results: the supplement of paper PMC8728848
# Some of the results follow.
# B1: Eap (Staphylococcus aureus), A0A7L5PYT7 (protein)
# chain: MKFKSLITTTLALGVLASTGANFNNNEAAAAAKPLDKSSSSLHHGYSKVHVPYAITVNGTSQNILSSLTFNKNQNISYKDLEDRVKSVLKSDRGISDIDLRLSKQAKYTVYFKNGTKKVIDLKAGIYTADLINTSEIKAININVDTKKQVEDKKKDKANYQVPYTITVNGTSQNILSNLTFNKNQNISYKDLEDKVKSVLESNRGITDVDLRLSKQAKYTVNFKNGTKKVIDLKSGIYTANLINSSDIKSININVDTKKHIENKAKRNYQVPYSINLNGTSTNILSNLSFSNKPWTNYKNLTSQIKSVLKHDRGISEQDLKYAKKAYYTVYFKNGGKRILQLNSKNYTANLVHAKDVKRIEITVKTGTKAKADRYVPYTIAVNGTSTPILSDLKFTGDPRVGYKDISKKVKSVLKHDRGIGERELKYAKKATYTVHFKNGTKKVININSNISQLNLLYVQDIKKIDIDVKTGTKAKADSYVPYTIAVNGTSTPILSKLKISNKQLISYKYLNDKVKSVLKSERGISDLDLKFAKQAKYTVYFKNGKKQVVNLKSDIFTPNLFSAKDIKKIDIDVKQYTKSKKNK
# What was measured:
# Assay in all cases: glycan array binding signal (z-score within array); higher = stronger binding
# Conditions in all cases: glycan notation: IUPAC condensed, linker removed
# Man(b1-4)GlcNAc = biological target: Man(b1-4)GlcNAc
# Summary of the method: (§1)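 Negative Z-scores can be read as non-binding. The Z-score is calculated within each array and then averaged across arrays of one protein sequence at different concentrations or buffers and across linkers. Arrays, 3228 in all, were curated from the Consortium for Functional Glycomics database and kept only where the protein sequence was available.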
# Neu5Ac(a2-3)Gal = biological target: Neu5Ac(a2-3)Gal
# Summary of the method: as §1
# [1] = biological target: Neu5Ac(a2-3)Gal(b1-3)GalNAc
# Summary of the method: as §1
# [2] = biological target: Neu5Ac(a2-3)Gal(b1-3)GalNAc(b1-3)Gal(a1-4)Gal(b1-4)Glc
# Summary of the method: as §1
# [3] = biological target: Neu5Ac(a2-3)Gal(b1-3)GalNAc(b1-3)Gal(b1-4)GlcNAc
# Summary of the method: as §1
# [4] = biological target: Neu5Ac(a2-3)Gal(b1-3)GalNAc(b1-4)[Neu5Ac(a2-3)]Gal(b1-4)Glc
# Summary of the method: as §1
# [5] = biological target: Neu5Ac(a2-3)Gal(b1-3)GalNAc6S
# Summary of the method: as §1
# [6] = biological target: Neu5Ac(a2-3)Gal(b1-3)GlcNAc
# Summary of the method: as §1
# [7] = biological target: Neu5Ac(a2-3)Gal(b1-3)GlcNAc(b1-3)Gal(b1-3)GlcNAc
# Summary of the method: as §1
# [8] = biological target: Neu5Ac(a2-3)Gal(b1-3)GlcNAc6S
# Summary of the method: as §1
# [9] = biological target: Neu5Ac(a2-3)Gal(b1-3)[Fuc(a1-4)]GlcNAc
# Summary of the method: as §1
# [10] = biological target: Neu5Ac(a2-3)Gal(b1-3)[Fuc(a1-4)]GlcNAc(b1-3)Gal(b1-3)[Fuc(a1-4)]GlcNAc
# Summary of the method: as §1
# [11] = biological target: Neu5Ac(a2-3)Gal(b1-3)[Fuc(a1-4)]GlcNAc(b1-3)Gal(b1-4)[Fuc(a1-3)]GlcNAc
# Summary of the method: as §1
# [12] = biological target: Neu5Ac(a2-3)Gal(b1-3)[Neu5Ac(a2-3)Gal(b1-4)]GlcNAc
# Summary of the method: as §1
# [13] = biological target: Neu5Ac(a2-3)Gal(b1-3)[Neu5Ac(a2-6)]GalNAc
# Summary of the method: as §1
# Neu5Ac(a2-3)Gal(b1-4)Glc = biological target: Neu5Ac(a2-3)Gal(b1-4)Glc
# Summary of the method: as §1
# [14] = biological target: Neu5Ac(a2-3)Gal(b1-4)GlcNAc
# Summary of the method: as §1
# [15] = biological target: Neu5Ac(a2-3)Gal(b1-4)GlcNAc(b1-2)Man(a1-3)[GlcNAc(b1-2)Man(b1-4)GlcNAc(b1-2)Man(a1-6)]Man(b1-4)GlcNAc(b1-4)GlcNAc
# Summary of the method: as §1
# [16] = biological target: Neu5Ac(a2-3)Gal(b1-4)GlcNAc(b1-2)Man(a1-3)[Neu5Ac(a2-6)Gal(b1-4)GlcNAc(b1-2)Man(a1-6)]Man(b1-4)GlcNAc(b1-4)GlcNAc
# Summary of the method: as §1
# [17] = biological target: Neu5Ac(a2-3)Gal(b1-4)GlcNAc(b1-3)Gal(b1-3)GlcNAc
# Summary of the method: as §1
# [18] = biological target: Neu5Ac(a2-3)Gal(b1-4)GlcNAc(b1-3)Gal(b1-4)GlcNAc
# Summary of the method: as §1
# [19] = biological target: Neu5Ac(a2-3)Gal(b1-4)GlcNAc(b1-3)Gal(b1-4)GlcNAc(b1-3)Gal(b1-4)GlcNAc
# Summary of the method: as §1
# [20] = biological target: Neu5Ac(a2-3)Gal(b1-4)GlcNAc(b1-3)Gal(b1-4)[Fuc(a1-3)]GlcNAc
# Summary of the method: as §1
# [21] = biological target: Neu5Ac(a2-3)Gal(b1-4)GlcNAc(b1-3)GalNAc
# Summary of the method: as §1
# [22] = biological target: Neu5Ac(a2-3)Gal(b1-4)GlcNAc(b1-6)[Gal(b1-3)]GalNAc
# Summary of the method: as §1
# [23] = biological target: Neu5Ac(a2-3)Gal(b1-4)GlcNAc(b1-6)[Neu5Ac(a2-3)Gal(b1-3)]GalNAc
# Summary of the method: as §1
# [24] = biological target: Neu5Ac(a2-3)Gal(b1-4)GlcNAc6S
# Summary of the method: as §1
# [25] = biological target: Neu5Ac(a2-3)Gal(b1-4)[Fuc(a1-3)]GlcNAc
# Summary of the method: as §1
# [26] = biological target: Neu5Ac(a2-3)Gal(b1-4)[Fuc(a1-3)]GlcNAc(b1-3)Gal
# Summary of the method: as §1
# [27] = biological target: Neu5Ac(a2-3)Gal(b1-4)[Fuc(a1-3)]GlcNAc(b1-3)Gal(b1-4)GlcNAc
# Summary of the method: as §1
binder,measurement,setting,value
B1,glycan array binding signal (z-score),Man(b1-4)GlcNAc,0.556
same,glycan array binding signal (z-score),Neu5Ac(a2-3)Gal,-0.326
same,glycan array binding signal (z-score),[1],-0.55
same,glycan array binding signal (z-score),[2],-0.484
same,glycan array binding signal (z-score),[3],-0.51
same,glycan array binding signal (z-score),[4],-0.511
same,glycan array binding signal (z-score),[5],-0.192
same,glycan array binding signal (z-score),[6],-0.409
same,glycan array binding signal (z-score),[7],-0.437
same,glycan array binding signal (z-score),[8],0.023
same,glycan array binding signal (z-score),[9],-0.188
same,glycan array binding signal (z-score),[10],0.171
same,glycan array binding signal (z-score),[11],-0.587
same,glycan array binding signal (z-score),[12],-0.558
same,glycan array binding signal (z-score),[13],0.25
same,glycan array binding signal (z-score),Neu5Ac(a2-3)Gal(b1-4)Glc,-0.329
same,glycan array binding signal (z-score),[14],-0.256
same,glycan array binding signal (z-score),[15],-0.467
same,glycan array binding signal (z-score),[16],-0.541
same,glycan array binding signal (z-score),[17],-0.614
same,glycan array binding signal (z-score),[18],-0.354
same,glycan array binding signal (z-score),[19],-0.603
same,glycan array binding signal (z-score),[20],-0.528
same,glycan array binding signal (z-score),[21],0.372
same,glycan array binding signal (z-score),[22],-0.505
same,glycan array binding signal (z-score),[23],-0.533
same,glycan array binding signal (z-score),[24],-0.572
same,glycan array binding signal (z-score),[25],-0.563
same,glycan array binding signal (z-score),[26],-0.616
same,glycan array binding signal (z-score),[27],0.303
